± gives the standard error. This sample is rich in variants without activity.
B1: glmS ribozyme (parent)
chain: AUAAAAGCGCCAGAACUACAGAAAUGUAGUUGACGAGGAGGAGGUUUAUCGAAUUUUCGGCGGAUGCCUCCAAA

Variants of: B1
Assay: self-cleavage kobs at 10000 uM GlcN6P; higher = faster cleavage; RNA array
Conditions: with glucosamine-6-phosphate
Summary of the method: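 Barcoded ribozyme variants on sequenced MiSeq chips were transcribed in situ by E. coli RNA polymerase and followed at 37 °C through a hybridised Cy3 probe. Glucosamine-6-phosphate at 40 μM to 10 mM in HEPES/KCl/Mg(OAc)2 buffer was flowed in, and tiles were imaged over ~14 h. Signals were normalised to baseline and to non-cleaving reference variants, and per-tile medians were fit to one- or two-exponential decays to give kobs. Weighted Michaelis–Menten fits across concentrations gave kcat and KM.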

Variant | self-cleavage kobs at 10000 uM GlcN6P [s⁻¹]
C10U A15U A39G G41U | < 1e-05
C10U C16G G40A G51A A53G | < 1e-05
C10U G40A A64C U65C | < 1e-05
C10U U30G G38A A39C U69C | < 1e-05
C11A A33C A42C C50G | < 1e-05
C11A G13A G32U G44A U49G C50A | < 1e-05
C11A G41A A52C G59A U69G | < 1e-05
C11A U30C A39G | 0.000114 ± 2.3e-05
C11G C50U G59C | < 1e-05
C11G U31G G35U A36U U49C A52U | < 1e-05
C11U A39U U54G | 0.000492 ± 0.00011
C11U A39U U57A C61G | < 1e-05
C11U G32A A42G A53U | 9.31e-05 ± 2.5e-05
C11U U46A A52G C61A | < 1e-05
A12C A36G G41A | < 1e-05
A12C A39U A48C | 4.14e-05 ± 1e-05
A12C G44U C58G | < 1e-05
A12G A14U G32U G60A G66U | < 1e-05
A12G A39U G41C G63U U69G | < 1e-05
A12G A42G A52G | 2.4e-05 ± 1.2e-05
A12G C16A A42U A48U A53U U56G C71A | < 1e-05
A12G C61U C67G | < 1e-05
A12G G40A A48U U69C | < 1e-05
A12G U45A C71U | 0.00191 ± 0.0004
A12U G13U G35C G60U C71A | < 1e-05

Variant | self-cleavage kobs at 10000 uM GlcN6P [s⁻¹]
A12U G38U C58U | < 1e-05
A12U G40U G43A U54A U55C G66U | < 1e-05
A12U U46G A48G | 9.42e-05 ± 2.1e-05
G13A C58U | 8.94e-05 ± 8.9e-06
G13A G38U G43C | < 1e-05
G13C A14G U30G A33G G43C U57C | < 1e-05
G13U A36C G44U | < 1e-05
G13U A64U C67U C70U | < 1e-05
G13U G40A G66C C71A | 2.79e-05 ± 1.3e-05
G13U G63C C67U | < 1e-05
G13U U31G A64G | 0.00021 ± 5.2e-05
A14C A39U G59U | < 1e-05
A14C C50A C71A | < 1e-05
A14C C68A C70A | < 1e-05
A14C G40U A64C G66U | < 1e-05
A14C U31G A39U G41U U47A G60U | < 1e-05
A14C U49G | 9.07e-05 ± 1.3e-05
A14G U47C U56G | 0.0112 ± 0.0019
A14G U49A | 3.67e-05 ± 1.2e-05
A14U A39C U65C | 6.04e-05 ± 1.6e-05
A14U C16G G32A U56G | 0.000337 ± 5e-05
A14U C16U G51A | < 1e-05
A14U G37C A64C | < 1e-05
A15G A48G G51U | < 1e-05
A15G C16U G51U | < 1e-05

Variant | self-cleavage kobs at 10000 uM GlcN6P [s⁻¹]
A15U A36U G41U | < 1e-05
A15U A52U G60A | < 1e-05
A15U C67G C71A | < 1e-05
A15U G37A C70G | < 1e-05
A15U G41A A48G A64G | < 1e-05
C16A A36U G44U | < 1e-05
C16A C34G G59A | < 1e-05
C16A G37U | < 1e-05
C16A U46C U55C | 7.09e-05 ± 1.6e-05
C16A U47C G59U | < 1e-05
C16A U57A C58G G59C G60U G66A | < 1e-05
C16G A52U C68A | < 1e-05
C16G C61A U65G | < 1e-05
C16G G32U C70U | 0.000712 ± 0.00013
C16U A33G A39U | < 1e-05
C16U G35U A52C | < 1e-05
C19A A64C C70G | < 1e-05
G21U G29C | 0.00256 ± 0.0005
G26U U57G | 5.83e-05 ± 2e-05
G29A A42C C68U C70G | < 1e-05
G29A G35C C67A | < 1e-05
G29A G66U C68U | 3.63e-05 ± 1.6e-05
G29C A33U | 2.33e-05 ± 1.2e-05
U30A G44A C68G | < 1e-05
U30C C34U G35U | < 1e-05

Variant | self-cleavage kobs at 10000 uM GlcN6P [s⁻¹]
U30C G32U A36C U54A | < 1e-05
U30G C34G U56G | < 1e-05
U30G G35U G40A G60A C67G | < 1e-05
U30G G37A G41U C50A U57A | < 1e-05
U30G G37U A52U G59A | < 1e-05
U30G U31G U46C U65G | 5.94e-05 ± 2.6e-05
U31A C34G G43C | < 1e-05
U31A U57G | 3.33e-05 ± 1.1e-05
U31C A52U G63U U69G | < 1e-05
G32A U47A G51U | < 1e-05
G32C A36U C58U | < 1e-05
G32U A48U G51A C67A | < 1e-05
G32U G40U A42C A53G C71G | < 1e-05
G32U G44U C61G | < 1e-05
A33C A36G U47G G51A | < 1e-05
A33C A39C A64C | < 1e-05
A33C C68G C71A | < 1e-05
A33C G44C G51C G63C | < 1e-05
A33C U45C U49G G66A | < 1e-05
A33G G37U A53U U57C | < 1e-05
A33G G41U C71U | < 1e-05
A33G G43U C68U | < 1e-05
A33U A39C A48C | < 1e-05
A33U G40A G41U G59U | < 1e-05
C34A A42C U65A | < 1e-05

Variant | self-cleavage kobs at 10000 uM GlcN6P [s⁻¹]
C34A A64G U69C | < 1e-05
C34A G44A U47G G60A | < 1e-05
C34G A48U | < 1e-05
C34U A42U U49G C50A | < 1e-05
C34U A64U C71U | < 1e-05
C34U G59U G63C | < 1e-05
G35A A36U A48U C71A | < 1e-05
G35U G37C G63U A64U | < 1e-05
G35U U55G | < 1e-05
A36C A42U U56A C58U A64G | < 1e-05
A36C G37U G38C | < 1e-05
A36C G44A G66U | < 1e-05
A36C U46A A53U | < 1e-05
A36G G37U G63U | < 1e-05
G37A A48U G51U C68U | < 1e-05
G37A U49G C67G | < 1e-05
G37C G43C U65A | < 1e-05
G37C U45G A64C | < 1e-05
G37U C67A | < 1e-05
G37U G38C G40C A42C G66C | < 1e-05
G38A A52G U55G | < 1e-05
G38A C50U G60C C68A | < 1e-05
G38A C58A | < 1e-05
G38A G59C C61U | < 1e-05
G38C A39U A52U | < 1e-05

Variant | self-cleavage kobs at 10000 uM GlcN6P [s⁻¹]
G38C U49C U69G | < 1e-05
G38U C61U A64U | < 1e-05
G38U G40U G41C U55A | < 1e-05
G38U G41A U55A G63U | < 1e-05
G38U G41U C68G | < 1e-05
A39C G40U C50U C68A | < 1e-05
A39C G41C U56G C58U G62C G63A | < 1e-05
A39C G41U C50U U56G U57G | < 1e-05
A39G G51U C71U | < 1e-05
A39U A48G C50A U57A C70A | < 1e-05
A39U G41C U49A C61U | < 1e-05
G40A G60U C68U | < 1e-05
G40A U49C C67G C68U | < 1e-05
G40C G43U G51U | < 1e-05
G40U A48G U57A G66U C67U | < 1e-05
G40U G41A U47G A52U U65A C70U | < 1e-05
G40U G41C C50U | < 1e-05
G41A G66A C68U | 3.05e-05 ± 1.3e-05
G41C G66C C68A | < 1e-05
G41U U57C A64C | < 1e-05
A42C C50U C68A C70A | < 1e-05
A42C G51A G63A | < 1e-05
A42C U45C | < 1e-05
A42C U57G C70G | < 1e-05
G43A G51U C67G C70G | < 1e-05

Variant | self-cleavage kobs at 10000 uM GlcN6P [s⁻¹]
G43A U45C U46A A64U | < 1e-05
G43A U57C G59U A64U | < 1e-05
G43C A52G U65A | < 1e-05
G43U G51C U65G U69C | < 1e-05
G44C C50A G62A | < 1e-05
U45C U65G C67A | 0.000786 ± 0.00016
U46A A48G | 3.66e-05 ± 1.3e-05
U46A C50A G59U | < 1e-05
U47A A53U C58A | 0.000151 ± 3e-05
U49A U55A | 2.26e-05 ± 9.3e-06
U49C U56G | < 1e-05
U49G C61A | < 1e-05
C50U A53C U54G | < 1e-05
A52C C68U C70U | 3.87e-05 ± 1.7e-05
U54A G62C C70G | < 1e-05
U55C G59C C70G | < 1e-05
G59U C61A C67A | < 1e-05
G59U C61U A64G | < 1e-05
G60U G66C | < 1e-05
C61A C68A | < 1e-05
C61U G63U C67U | < 1e-05
